The campaign covered roughly 52,000 compounds. About 4,300 (8.3%) were called active. No stated cut-off is given here; in the data, active means survival mostly below about 52% (no sharp cut-off); inactive means mostly above about 56%. The list shows a part of the results.

This experiment has as its system DeltatarO mutant. As to the kind of experiment: S. aureus survival, RN4220 and DeltatarO strains – OD600, teichoic acid synthesis inhibitors, primary screen (AID 463173). The note with it: S. aureus RN4220 wild type/DeltatarO growth, OD600, 18 h, stronger effect = lower value, screened at 18.75 µg/mL (by protocol).
In the case of `Cc1ccc(OC(=O)CSc2nnc(-c3cccs3)o2)cc1`, the survival is inactive: 72%. Next, `CCn1c(=O)c2sccc2n2c(CCC(=O)N3CCN(c4ccc(C(C)=O)cc4)CC3)nnc12`: inactive: 65%; `Cc1ccccc1C(=O)N(Cc1nc(-c2ccc(Cl)cc2)no1)C(C)C`: inactive: 78%; `CNC(=O)c1c(NC(=O)/C=C/c2ccccc2Cl)sc2c1CCC2`: inactive: 89%. The result for `O=C(Cn1c(-c2cccs2)cc2cc(Cl)ccc21)N1CCN(c2ccccc2F)CC1` reads inactive: 75%. Consider `CC(NC(=O)CN(c1ccc(Cl)cc1Cl)S(=O)(=O)c1ccccc1)c1ccccc1` (stereo not drawn), for which the survival was active: 37%. For `CCC(=O)Nc1ccc(CC)cc1-c1nc2ccccc2n(Cc2ccccc2)c1=O`, the survival is inactive: 66%. Regarding `COc1ccc(C(=O)c2oc3ccccc3c2NC(=O)COc2cccc(C)c2C)cc1`, the survival was inactive: 76%. In the case of `COc1cc(-c2noc(CCC(=O)Nc3cc(C)ccc3C)n2)cc(OC)c1OC`, the survival is inactive: 81%. The result for `COc1ccc(NC(=O)C(Cc2ccccc2)n2cccc2)cc1OC` (stereo not drawn) reads inactive: 79%; that for `CCCCS(=O)(=O)/C=C\C1C2C=CC(C2)C1S(=O)(=O)CCCC` (stereo not drawn), inactive: 75%; that for `Cc1ccccc1Cn1c2ccccc2c2cnn(CC(=O)NCCc3ccccc3)c(=O)c21`, inactive: 96%. Regarding `CCOC(=O)CSc1nnc(CNc2cccc(C(F)(F)F)c2)n1CC`, the survival is inactive: 71%.

As for `COc1ccc(NC(=O)CCS(=O)(=O)c2ccc3nc(C)sc3c2)cc1Cl`, the survival is inactive: 44%. Consider `Cc1ccc(-n2ncc(C(=O)NCCc3c[nH]c4ccccc34)c2C2CCN(C(=O)OC(C)(C)C)CC2)cc1C`, for which the survival was inactive: 110%. The result for `O=C(CN1CCCN(Cc2ccccc2Cl)S1(=O)=O)NCc1ccccc1` reads inactive: 94%; that for `N#C/C=C1\n2c(nc3ccccc32)OC12CCCCC2`, inactive: 106%; that for `Cc1cccn2c(=O)cc(COc3cccc(NC(=O)COc4ccc(F)cc4)c3)nc12`, inactive: 108%.

For `CCc1nnc(NC(=O)C(=O)c2cc(C)n(-c3ccccc3)c2C)s1`, the survival is inactive: 77%. For `O=C(N1CCOCC1)N1CCOCC1`, the survival was inactive: 67%. On to `CC(C)N(Cc1ccccc1)C(=O)Cn1ncc2c([nH]c3ccccc32)c1=O`, for which the survival is inactive: 105%.

Consider `Cc1ccc2[nH]c(=O)c(CN(CC3CCCO3)C(=S)NCCCN3CCOCC3)cc2c1` (stereo not drawn), for which the survival is inactive: 114%. Next, `CC1CCC(NC(=O)c2cc3c(Cl)nc4ccccc4c3s2)CC1` (stereo not drawn): inactive: 87%; `O=C(Cn1ccc2cc(S(=O)(=O)N3CCCCC3)ccc21)NCc1cccc(Cl)c1`: inactive: 117%; `CCOc1ccccc1NC(=O)Cn1c(=O)n(Cc2ccccc2)c(=O)c2cccnc21`: inactive: 109%. Turning to `CC(=O)Nc1ccccc1-c1nc2ccccc2n(Cc2cccc(Br)c2)c1=O`, the survival is inactive: 84%. For the compound `COc1ccc(F)cc1S(=O)(=O)Nc1cccc(-c2ccc(N3CCCCCC3)nn2)c1`, the survival is inactive: 88%. As to `Cc1cc(S(=O)(=O)NCC(c2ccco2)S(=O)(=O)c2ccccc2)ccc1F` (stereo not drawn), the survival is inactive: 95%. For `CCOC(=O)C(C)NC(=O)C1CCN(c2ncnc3c2nc2n3CCCCC2)CC1` (stereo not drawn), the survival is inactive: 83%. With `CCc1nn(C(CC)C(=O)NCc2ccc(F)cc2)c(=O)c2cc3occc3n12` (stereo not drawn), the survival was inactive: 76%.

Take `COc1cc(C(=O)NCC(c2ccco2)S(=O)(=O)c2ccccc2)cc(OC)c1OC` (stereo not drawn): the survival was inactive: 60%. Regarding `O=C(CCc1ccccc1)N(Cc1cccnc1)c1nc2c(F)cccc2s1`, the survival was inactive: 61%. `CCCOc1ccc(C(=O)N(Cc2ccc(N(C)C)cc2)CC2CCCO2)cc1` (stereo not drawn): the survival was inactive: 64%.

As for `O=C(c1cc2c(s1)-c1ccccc1OC2)N1CCN(c2ccccc2)CC1`, the survival is inactive: 57%.

Take `CC1=C(C(=O)Nc2ccccc2)C(CC(C)C)n2nc(SCc3ccccc3C)nc2N1` (stereo not drawn): the survival is inactive: 91%. For the compound `O=C(c1ccccc1/S(=N/S(=O)(=O)c1ccccc1)N1CCOCC1)N1CCOCC1` (stereo not drawn), the survival was inactive: 75%. For `CCC1CCCCN1CC(=O)Nc1cc(C)c2c(=O)oc3ccccc3c2n1` (stereo not drawn), the survival was inactive: 98%. Next, `O=C(CSc1nc2c([nH]c3ccccc32)c(=O)n1-c1ccc(Cl)cc1)N1CCOCC1`: inactive: 94%; `Cc1cc(C)cc(NC(=O)C2CCCN(C(=O)c3cnn(-c4ccccc4)c3-n3cccc3)C2)c1` (stereo not drawn): inactive: 68%. For the compound `Cc1ccc(NC(=O)N2CCC(c3ccccc3)C2)cc1C` (stereo not drawn), the survival is inactive: 80%. On to `Cc1ccc(-c2nonc2NC(=O)c2ccc(F)cc2)cc1C`, for which the survival is inactive: 84%.

`Cc1cccc(NC(=O)CSc2c(C)cnc3c2c(=O)n(C)c(=O)n3C)c1C`: the survival was inactive: 84%. As for `O=S(=O)(NCC(c1ccco1)N1CCOCC1)c1cc(F)ccc1F` (stereo not drawn), the survival is inactive: 81%.

Regarding `CCCOc1ccc(-c2nc(SC)[nH]c(=O)c2C#N)cc1OC`, the survival was inactive: 79%. The result for `CCN(CC)CCN(C(=O)c1ccco1)c1nc2ccc(Br)cc2s1` reads inactive: 76%; that for `CC(=O)Nc1nonc1-c1nnc(SCC(=O)Nc2cc(C)cc(C)c2)n1-c1ccccc1`, inactive: 50%; that for `Cc1ccc(S(=O)(=O)c2c(Nc3cc(F)ccc3F)sc(C(=O)c3ccc(F)cc3)c2N)cc1`, inactive: 99%. As for `O=C(c1ccc2c(c1)N(Cc1ccccc1)C(=O)c1ccccc1S2(=O)=O)N1CCCCCC1`, the survival was inactive: 70%. Consider `Cc1ccc(C(=O)Nc2ccc(OCc3cc(=O)n4c(C)csc4n3)cc2)cc1`, for which the survival is inactive: 95%. With `CCCN(CCC)CCCNC(=O)Cn1ncc2c3ccccc3n(Cc3ccccc3)c2c1=O`, the survival was inactive: 100%.

On to `Cc1ccc(NC(=O)Cc2csc(C)n2)c(C)c1`, for which the survival was active: 40%. As for `Cc1cccc(NC(=O)CSc2nncn2C)c1`, the survival was inactive: 70%.

As for `Cc1ccc(Nc2c(-c3ccc(O)cc3)nc3cccc(C)n23)cc1`, the survival is inactive: 84%. With `Cc1nc(-c2ccc(Cl)cc2)sc1CCNC(=O)c1cccs1`, the survival was inactive: 105%. Regarding `CCCCn1c(NCc2ccc(OC)cc2O)nc2ccccc21`, the survival was inactive: 66%.

Regarding `O=C(NCc1ccc(F)cc1)c1ccc2c(O)c(S(=O)(=O)c3ccccc3)c(=O)[nH]c2c1`, the survival is inactive: 66%.

Regarding `O=C(NCc1ccccc1)c1ccc(CSc2nc3cccnc3n2Cc2cccc(F)c2)cc1`, the survival was inactive: 101%. In the case of `CCCCn1nc(NC(=O)c2cccc(Cl)c2)c2cc3ccccc3nc21`, the survival is inactive: 69%.

For the origin of these results see PubChem BioAssay AID463173 (ICCB-Longwood Screening Facility, Harvard Medical School, 2010).
